# The list shows a part of the results. Single values are uncertain, as repeats are few or missing.
# System: WM3526
# Assay: cell count relative to DMSO control; melanoma cells; higher = more viable cells
# Conditions: library dose: low library concentration; 72 h
# 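Further: cell number obtained by counting DAPI-stained nuclei in high-throughput microscope images with image analysis software, screen run in 1,536-well plates.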
row,SMILES,cell count
1,"OCc1c[nH]c2ccccc12 [Indole-3-carbinol] + CN(NC(=O)CC(=O)NN(C)C(=S)c1ccccc1)C(=S)c1ccccc1 [STA4783] (first compound 0.8 µM, partner dose 0.006 µM)",75.1%
2,"OCc1c[nH]c2ccccc12 [Indole-3-carbinol] + C[C@@H]1CCN(C(=O)CC#N)C[C@@H]1N(C)c1ncnc2[nH]ccc12 [CP690550] (first compound 0.8 µM, partner dose 1 µM)",104%
3,"C#Cc1cccc(Nc2ncnc3cc(OCCOC)c(OCCOC)cc23)c1 [erlotinib] + OCCn1cc(-c2cnc3nnn(Cc4ccc5ncccc5c4)c3n2)cn1 [PF04217903] (first compound 0.8 µM, partner dose 1 µM)",100%
4,"COCC[n+]1c2c(n(Cc3cnccn3)c1C)C(=O)c1ccccc1C2=O + CO[C@@H]1[C@H](N(C)C(=O)c2ccccc2)C[C@H]2O[C@]1(C)n1c3ccccc3c3c4c(c5c6ccccc6n2c5c31)C(=O)NC4 [Midostaurin] (first compound 0.0004 µM, partner dose 0.08 µM)",80%
5,"O=C(CCCCCCC(=O)Nc1ccccc1)NO [vorinostat] + O=C(O)c1ccc(-c2c[nH]c3ncc(-c4ccccc4)cc23)cc1C1CCCC1 [GSK650394] (first compound 0.08 µM, partner dose 0.16 µM)",83.2%
6,"COCC[n+]1c2c(n(Cc3cnccn3)c1C)C(=O)c1ccccc1C2=O + O=C(Nc1cccc(Cl)c1)Nc1ncc(CCNc2ncnc3ccsc23)s1 [SNS314] (first compound 0.0004 µM, partner dose 0.0008 µM)",100%
7,"OCc1c[nH]c2ccccc12 [Indole-3-carbinol] + NC(=O)Nc1cc(-c2cccc(F)c2)sc1C(=O)N[C@H]1CCCNC1 [AZD7762] (first compound 0.8 µM, partner dose 0.02 µM)",88.3%
8,"OCc1c[nH]c2ccccc12 [Indole-3-carbinol] + O=C(O)C(=O)Nc1sc2c(c1C(=O)O)CCNC2 [TCS401] (first compound 0.8 µM, partner dose 1.66667 µM)",96.8%
9,"Clc1ccc(Nc2nnc(Cc3ccncc3)c3ccccc23)cc1 [vatalanib] + NCC(=O)Nc1ccc(-n2nc(C(F)(F)F)cc2-c2ccc3c(ccc4ccccc43)c2)cc1 [OSU03012] (first compound 2 µM, partner dose 1 µM)",53.5%

# System: WM3619
# Assay: as above
# Conditions: library dose: low library concentration; 72 h
row,SMILES,cell count
1,"COCC[n+]1c2c(n(Cc3cnccn3)c1C)C(=O)c1ccccc1C2=O + COc1cc2c(Oc3ccc4[nH]c(C)cc4c3F)ncnc2cc1OCCCN1CCCC1 [cediranib] (first compound 0.0004 µM, partner dose 0.4 µM)",88.3%
2,"O=C(CCCCCCC(=O)Nc1ccccc1)NO [vorinostat] + COc1ccc(COc2ccc(Cc3cnc(N)nc3N)cc2OC)cc1 [GW2580] (first compound 0.08 µM, partner dose 1 µM)",118%
3,"C#Cc1cccc(Nc2ncnc3cc(OCCOC)c(OCCOC)cc23)c1 [erlotinib] + O=C(O)C(=O)Nc1sc2c(c1C(=O)O)CCNC2 [TCS401] (first compound 0.8 µM, partner dose 1.66667 µM)",102%
4,"Cn1c(Nc2ccc(C(F)(F)F)cc2)nc2cc(Oc3ccnc(-c4ncc(C(F)(F)F)[nH]4)c3)ccc21 + COC(=O)c1sccc1S(=O)(=O)Nc1ccc(Nc2ccccc2)cc1OC [GSK0660] (first compound 0.08 µM, partner dose 1 µM)",76.4%
5,"COCC[n+]1c2c(n(Cc3cnccn3)c1C)C(=O)c1ccccc1C2=O + Nc1cccc2c1CN(C1CCC(=O)NC1=O)C2=O [lenalidomide] (first compound 0.0004 µM, partner dose 1 µM)",103%
6,"Cn1c(Nc2ccc(C(F)(F)F)cc2)nc2cc(Oc3ccnc(-c4ncc(C(F)(F)F)[nH]4)c3)ccc21 + COCC[n+]1c2c(n(Cc3cnccn3)c1C)C(=O)c1ccccc1C2=O [YM155] (first compound 0.08 µM, partner dose 0.0004 µM)",59.9%
7,"O=C(CCCCCCC(=O)Nc1ccccc1)NO [vorinostat] + NCC(=O)Nc1ccc(-n2nc(C(F)(F)F)cc2-c2ccc3c(ccc4ccccc43)c2)cc1 [OSU03012] (first compound 0.08 µM, partner dose 1 µM)",61.2%
8,"Cn1c(Nc2ccc(C(F)(F)F)cc2)nc2cc(Oc3ccnc(-c4ncc(C(F)(F)F)[nH]4)c3)ccc21 + O=C(CCCCCCC(=O)Nc1ccccc1)NO [vorinostat] (first compound 0.08 µM, partner dose 0.08 µM)",53.6%
9,"Nc1cccc2c1CN(C1CCC(=O)NC1=O)C2=O (centres undefined) [lenalidomide] + CN(NC(=O)CC(=O)NN(C)C(=S)c1ccccc1)C(=S)c1ccccc1 [STA4783] (first compound 1 µM, partner dose 0.006 µM)",53.1%
10,"C#Cc1cccc(Nc2ncnc3cc(OCCOC)c(OCCOC)cc23)c1 [erlotinib] + COc1cc2ncnc(Nc3ccc(Oc4ccccc4)cc3)c2cc1OC [SrcI1] (first compound 0.8 µM, partner dose 2 µM)",104%
11,"Cn1c(Nc2ccc(C(F)(F)F)cc2)nc2cc(Oc3ccnc(-c4ncc(C(F)(F)F)[nH]4)c3)ccc21 + Cc1ccc(NC(=O)c2cccc(N(C)C)c2)cc1NC(=O)c1ccc(O)cc1 [ZM336372] (first compound 0.08 µM, partner dose 2 µM)",82%
12,"Clc1ccc(Nc2nnc(Cc3ccncc3)c3ccccc23)cc1 [vatalanib] + CCCCCCCCCCCC1=C(O)C(=O)C=C(O)C1=O [Embelin] (first compound 2 µM, partner dose 1.2 µM)",109%
13,"Nc1cccc2c1CN(C1CCC(=O)NC1=O)C2=O (centres undefined) [lenalidomide] + O=C(CCCCCCC(=O)Nc1ccccc1)NO [vorinostat] (first compound 1 µM, partner dose 0.08 µM)",96.7%
14,"O=C(CCCCCCC(=O)Nc1ccccc1)NO [vorinostat] + O=S(=O)(c1ccccc1)N(CC(F)(F)F)c1ccc(C(O)(C(F)(F)F)C(F)(F)F)cc1 [T0901317] (first compound 0.08 µM, partner dose 1.4 µM)",72.4%
15,"OCc1c[nH]c2ccccc12 [Indole-3-carbinol] + COCC[n+]1c2c(n(Cc3cnccn3)c1C)C(=O)c1ccccc1C2=O [YM155] (first compound 0.8 µM, partner dose 0.0004 µM)",97.5%
16,"COCC[n+]1c2c(n(Cc3cnccn3)c1C)C(=O)c1ccccc1C2=O + C=CCn1c(=O)c2cnc(Nc3ccc(N4CCN(C)CC4)cc3)nc2n1-c1cccc(C(C)(C)O)n1 [MK1775] (first compound 0.0004 µM, partner dose 0.02 µM)",80.8%
17,"C#Cc1cccc(Nc2ncnc3cc(OCCOC)c(OCCOC)cc23)c1 [erlotinib] + COCC[n+]1c2c(n(Cc3cnccn3)c1C)C(=O)c1ccccc1C2=O [YM155] (first compound 0.8 µM, partner dose 0.0004 µM)",83.2%
18,"C#Cc1cccc(Nc2ncnc3cc(OCCOC)c(OCCOC)cc23)c1 [erlotinib] + Cc1nc(Nc2ncc(C(=O)Nc3c(C)cccc3Cl)s2)cc(N2CCN(CCO)CC2)n1 [dasatanib] (first compound 0.8 µM, partner dose 0.004 µM)",97.4%
19,"Clc1ccc(Nc2nnc(Cc3ccncc3)c3ccccc23)cc1 [vatalanib] + CN(C)S(=O)(=O)c1ccc2c(c1)/C(=C/c1cc3c([nH]1)CCCC3)C(=O)N2 [SU6656] (first compound 2 µM, partner dose 0.4 µM)",93.9%
20,"Cn1c(Nc2ccc(C(F)(F)F)cc2)nc2cc(Oc3ccnc(-c4ncc(C(F)(F)F)[nH]4)c3)ccc21 + C[C@@H]1CCN(C(=O)CC#N)C[C@@H]1N(C)c1ncnc2[nH]ccc12 [CP690550] (first compound 0.08 µM, partner dose 1 µM)",65.8%
21,"Cn1c(Nc2ccc(C(F)(F)F)cc2)nc2cc(Oc3ccnc(-c4ncc(C(F)(F)F)[nH]4)c3)ccc21 + Nc1cccc2c1CN(C1CCC(=O)NC1=O)C2=O [lenalidomide] (first compound 0.08 µM, partner dose 1 µM)",73.4%
22,"Nc1cccc2c1CN(C1CCC(=O)NC1=O)C2=O (centres undefined) [lenalidomide] + O=S(=O)(c1ccccc1)N(CC(F)(F)F)c1ccc(C(O)(C(F)(F)F)C(F)(F)F)cc1 [T0901317] (first compound 1 µM, partner dose 1.4 µM)",89.5%
23,"COCC[n+]1c2c(n(Cc3cnccn3)c1C)C(=O)c1ccccc1C2=O + O=S(=O)(c1ccccc1)N(CC(F)(F)F)c1ccc(C(O)(C(F)(F)F)C(F)(F)F)cc1 [T0901317] (first compound 0.0004 µM, partner dose 1.4 µM)",113%
24,"Nc1cccc2c1CN(C1CCC(=O)NC1=O)C2=O (centres undefined) [lenalidomide] + NCC(=O)Nc1ccc(-n2nc(C(F)(F)F)cc2-c2ccc3c(ccc4ccccc43)c2)cc1 [OSU03012] (first compound 1 µM, partner dose 1 µM)",112%
25,"Clc1ccc(Nc2nnc(Cc3ccncc3)c3ccccc23)cc1 [vatalanib] + CN(NC(=O)CC(=O)NN(C)C(=S)c1ccccc1)C(=S)c1ccccc1 [STA4783] (first compound 2 µM, partner dose 0.006 µM)",86.2%

# Source: the supplement of paper PMC4604168 (melanoma cell lines)
